Results taken from PubChem BioAssay AID1347073 (National Center for Advancing Translational Sciences (NCATS), 2019).
Among all 45,000 compounds or so, about 200 (0.44%) were called active. Inconclusive results (about 7%) are left out. The call rests on the fitted dose curve; in most records, active means well fitted activation curve with a large enough effect; inconclusive means small, poorly fitted or top-dose-only effect; inactive means no such curve, though single readings can be large or run the other way. This is one part of the list.

Test: qHTS of TDP-43 Inhibitors: NCGC Sytravon Library Screen; further: nearly all actives have a fitted effect of over 55% in size; on growth rescue (activation): 0% is about no effect
Settings: yeast TDP-43 toxicity rescue, BacTiter-Glo growth, 24 h; series mostly up to 46.1 µM; growth rescue (activation): at the top concentration
Procedure, shortened: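 TDP-43-expressing yeast, pregrown in raffinose, seeded at OD600 0.02 in galactose medium with compound for 24 hr at 30 deg C. Growth read by BacTiter-Glo luminescence, so rescue of toxicity appears as activation.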
Potency means the concentration at half of the fitted maximal effect.

Compound | growth rescue (activation) | Potency
O=CN1CCN(S(=O)(=O)c2ccc(Cl)c(C(=O)O)c2)CC1 | inactive: -1.87% | –
COc1cccc(C(=O)C2CCCN(Cc3cccn3-c3cccnc3)C2)c1 (centres undefined) | inactive: 5.75% | –
CC(=O)c1cccc(CN2CCC(n3nccc3NC(=O)c3ccc4c(c3)OCO4)CC2)c1 | inactive: 14.8% | –
COc1cccc(NC(=O)COC(=O)c2sccc2C)c1 | inactive: 26.9% | –
O=C1NC2=C(C(=O)CCC2)C(c2ccccc2[N+](=O)[O-])N1 (centres undefined) | inactive: 14% | –
NS(=O)(=O)c1ccc(CNc2ncnc3sccc23)cc1 | inactive: 14.7% | –
COC(=O)c1cc(C(C)=O)c(C)[nH]c1=O | inactive: 11.9% | –
NS(=O)(=O)c1cccc(NC(=O)CC23CC4CC(CC(Br)(C4)C2)C3)c1 | inactive: -7.42% | –
O=C(NCCNC(=O)c1ccccn1)c1ccccc1 | inactive: 1.86% | –
CCCCOc1ccc(NC(=O)CSc2cccc3cccnc23)cc1 | inactive: 20.1% | –
Cc1ccc(NS(=O)(=O)c2cccc(C(=O)NNC(=O)NC3CCCCC3)c2)c(C)c1 | inactive: 14.7% | –
COc1ccccc1C(=O)OCc1nc(N)nc(Nc2ccccc2C)n1 | inactive: 7.37% | –
CCOC(=O)C1(CCCc2ccccc2)CCN(C(=O)CCN2CCCCC2=O)CC1 | inactive: 8.42% | –
Cc1ccc(-n2nnnc2SCC(=O)Nc2cccnc2Cl)cc1 | inactive: -3.33% | –
CCCCN1C=CC(=C2C(=O)c3ccccc3C2=O)C=C1 | inactive: -30.3% | –
Cc1occc1-c1n[nH]c(=S)n1-c1ccccc1 | inactive: 11.5% | –
CCOC(=O)C(NC(=O)Nc1ccc(C(N)=O)cc1)(c1ccccc1)C(F)(F)F (centres undefined) | inactive: 14.9% | –
COCCN1CCN(C(=O)c2ccc3oc(CCCc4ccccc4)nc3c2)CC1 | inactive: 4.19% | –
CCOc1ccc(S(=O)(=O)N2CCC(C(=O)NCc3ccccn3)CC2)cc1 | inactive: 8.04% | –
C#Cc1cccc(Nc2nc(NCc3ccccc3)nc3ccsc23)c1 | inactive: 21.3% | –
Cc1cccc(NC(=O)COC(=O)CN2CCCCCC2=O)c1C | inactive: -25.1% | –
COC(=O)Nc1ccc(S(=O)(=O)N2CCCC(C(=O)O)C2)cc1 (centres undefined) | inactive: -16.5% | –
CC(=NNC(=O)CSc1nc2ccccc2o1)c1ccco1 | inactive: 23.9% | –

Compound | growth rescue (activation) | Potency
COc1cccc(/C=N/NC(=O)CCc2n[nH]c(=O)[nH]c2=O)c1O | inactive: -10.2% | –
CCOC(=O)c1nn(-c2ccc(F)cc2)c(=O)c2c(N)scc12 | inactive: 15.2% | –
COc1ccc(-c2cc(C(F)(F)F)nc(N3CCN(c4ccc(F)cc4)CC3)n2)cc1OC | inactive: 4.73% | –
COc1cc2c(cc1OC)CN(C(=O)c1ccc(S(=O)(=O)N3CCCCCC3)cc1)CC2 | inactive: 25.6% | –
CC1=CC(C)(C)Nc2ccc(OC(=O)CN3C(=O)C4CCCCC4C3=O)cc21 (centres undefined) | inactive: 17.1% | –
COc1ccc([N+](=O)[O-])cc1NC(=O)C1CCCO1 (centres undefined) | inactive: -12.5% | –
Cc1ccccc1CN1C[C@@H]2C[C@@H](c3cn(C)nc3-c3ccccc3)N3CCC[C@@]23C1=O | inactive: -3.66% | –
CCOC(=O)C1(C)CCCN(C(=O)CCc2ccccc2)C1 (centres undefined) | inactive: 15% | –
Cc1nc(N)sc1C(=O)N/N=C/c1cccnc1 | inactive: -3.23% | –
Cc1ccccc1P(=O)(CO)c1ccccc1C | inactive: -15.5% | –
Cc1nn(C(C)(C)C)c(OC(=O)CC(C)C)c1S(=O)(=O)c1ccccc1 | inactive: -11% | –
CCOC(=O)c1sc2nc(C)nc(SCC(=O)NC3CCS(=O)(=O)C3)c2c1C (centres undefined) | inactive: -4.47% | –
C/C(CC(=O)Nc1cc(C)ccn1)=N\NC(=O)c1ccc(C(C)(C)C)cc1 | inactive: 17% | –
COc1ccc(C(C)NCCC(c2ccc(OC(C)C)cc2)c2ccccc2OC)cc1 (centres undefined) | inactive: 11.9% | –
CCc1ccc(NC(=O)CCC(=O)c2ccc(C)cc2)cc1 | inactive: 2.36% | –
NS(=O)(=O)c1ccc(NC(=O)CSc2nnc(-c3ccc(O)cc3)o2)cc1 | inactive: -2.69% | –
Nc1c(C(=O)CSc2nnnn2-c2ccccc2)c(=O)[nH]c(=O)n1C1CC1 | inactive: 0.269% | –
Cc1ccc(/C=C/C(=O)c2ccc(O)cc2)cc1 | – | active: 15.8 µM
O=C(NCCc1ccccc1)c1ccc(-c2cccnc2)c2ccoc12 | inactive: 19.5% | –
Cc1ccc(C(=O)NCC(c2ccc(F)cc2)N2CCOCC2)s1 (centres undefined) | inactive: 11.2% | –
CC(O)(c1cccnc1)c1nc(-c2cc(F)cc(F)c2)cs1 (centres undefined) | inactive: 6.18% | –
Cc1nc(NC(=O)c2ccccc2)sc1-c1csc(Nc2ccc(C(=O)O)cc2)n1 | inactive: -12.7% | –
Cc1cc(C)n(CC(=O)Nc2ccc3c(c2)OCO3)c(=O)c1C#N | inactive: 8.87% | –

Compound | growth rescue (activation) | Potency
Cc1cccc(OCC(=O)NCC(c2ccco2)N2CCCC2)c1 (centres undefined) | inactive: 22.5% | –
COc1ccc(CNC(=S)NC2CCCC2)cc1 | inactive: -1.93% | –
COCCNC(=O)C(c1ccc(F)cc1)N(C(=O)CCC(=O)Nc1ccccn1)c1cccc(C)c1 (centres undefined) | inactive: 6.26% | –
Cc1ccc(S(=O)(=O)N/N=C/c2ccc(O)cc2O)cc1[N+](=O)[O-] | inactive: 16.9% | –
CN(C(=O)COC(=O)c1n[nH]c2ccccc12)c1ccccc1 | inactive: 1.99% | –
COc1ccc(Br)cc1CN1CCCCCC1 | inactive: -13.9% | –
CC(=O)Nc1ccc(-c2csc(NC(=O)Cc3ccccc3F)n2)cc1 | inactive: -3.92% | –
OC(CNc1nc(-c2cccnc2)nc2ccccc12)c1ccccc1 (centres undefined) | inactive: 3.23% | –
O=C(/C=C/c1cccc(F)c1)Nc1ccc(S(=O)(=O)N2CCOCC2)cc1 | inactive: 2.31% | –
CCOC(=O)c1c(C)n(-c2ccc(OC)cc2)c2ccc(OC(=O)COc3ccccc3)cc12 | inactive: 4.04% | –
Fc1ccc(-c2csc(NC3=NCCC3)n2)cc1 | inactive: 6.47% | –
COC(=O)COc1ccc2c(=O)c(Oc3ccccc3Br)coc2c1 | inactive: -12% | –
CC(C)(Cc1ccc(O)cc1)NC(=O)CC(=O)N/N=C/c1ccc([N+](=O)[O-])cc1 | inactive: 5.49% | –
CC1CN(C(=O)COC(=O)c2ccc(Cl)c(N)c2)CC(C)O1 (centres undefined) | inactive: 9.87% | –
CC1(C(=O)NS(=O)(=O)c2cccc(F)c2)CCN1C(=O)C1(c2ccc(Cl)cc2)CCC1 (centres undefined) | inactive: 27.9% | –
Cc1noc(C)c1-c1ccc(C(=O)NC2CCCCC2)c2occc12 | inactive: 7.35% | –
O=C(CN(C(=O)CCC(=O)Nc1ccccn1)C1CCCC1)NCc1ccc(F)cc1 | inactive: 2.01% | –
COc1cccc(OCc2cc(C(=O)NCCc3cccc(C)n3)no2)c1 | inactive: 11.8% | –
Cc1ncc([N+](=O)[O-])n1S(=O)(=O)c1ccc2c(c1)OCCO2 | inactive: -17.3% | –
Cc1nnsc1C(=O)NC1CCCc2c1cnn2-c1cc(F)cc(F)c1 (centres undefined) | inactive: 23.5% | –
c1ccc(COc2cccc(-c3cc4nc(NCCOc5ccccc5)ccn4n3)c2)cc1 | inactive: 13.4% | –
COc1cccc(OCCNC(=O)c2cc(OC)c(OC)c(OC)c2)c1 | inactive: -7.18% | –
COc1ccc(CNC(=O)CN(C)S(=O)(=O)c2ccc3nc(C)sc3c2)cc1 | inactive: 1.8% | –
